The experiment has as its target Nonstructural protein 3 (Zika virus) (UniProt A0A024AXB9).
Where [1] appears, read: PRVABC59, Concentration 50.0 uM, Number of replicates 1.0.
Where [2] appears, read: PRVABC59, Concentration 15.0 uM, Number of replicates 1.0.

Screen size: about 2,700 compounds; about 160 (5.9%) showed an effect of 50% or more. Some of the results follow.

A word on the inhibition: it is the relative decrease from the control value, in per cent.

UniProt A0A024AXB9, sequence (A0A024AXB9 as listed by the source): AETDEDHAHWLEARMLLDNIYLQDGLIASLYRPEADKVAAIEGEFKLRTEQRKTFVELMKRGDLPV

Regarding `CN(Cc1ccccc1)Cc1cccc(NC(=O)c2ccc3c(c2)B(O)OC3)c1`, the inhibition (PRVABC59, Concentration 49.5 uM, Number of replicates 2.0, Standard deviation 7.115138832598285 %) was -4.03%; the inhibition (PRVABC59, Concentration 99.01 uM, Number of replicates 2.0, Standard deviation 7.051352021894261 %) was -1.66%; the inhibition (PRVABC59, Concentration 198.0 uM, Number of replicates 2.0, Standard deviation 6.780740847478425 %) came out at 2.95%.
Turning to `O=Cc1ccc(N2CCC(C(=O)Nc3c(F)cc(Br)cc3F)CC2)cc1`, the inhibition under setting [1] worked out at 18.9%.
Turning to `COC(=O)c1c[nH]c(-c2ccccc2C(=O)Nc2cnn(C)c2)c1`, the inhibition was -4.09% (PRVABC59, Concentration 49.5 uM, Number of replicates 2.0, Standard deviation 1.5718630062911239 %); -4% (PRVABC59, Concentration 99.01 uM, Number of replicates 2.0, Standard deviation 1.3253228242905268 %); -2.07% (PRVABC59, Concentration 198.0 uM, Number of replicates 2.0, Standard deviation 1.3225986205901765 %).
With `Cc1ccc(NC(=O)C2CCN(c3ccc(C=O)cc3)CC2)c(Br)c1`, under setting [1], the inhibition was 27%.
Take `O=C(Nc1ccncc1I)c1cc(Cl)ccc1NS(=O)(=O)c1ccc(Oc2ccccc2Cl)cc1`: under setting [2], the inhibition was 27.7%.
On the same count and under the same terms, the value for `CN1CCN(C(=O)C2CCN(C(=O)c3cc(Cl)ccc3NS(=O)(=O)c3ccc(Oc4ccccc4Cl)cc3)CC2)CC1` was -3.6%.
On to `O=Cc1ccc(N2CCC(C(=O)N3C[C@@H]4C[C@H]3CN4Cc3ccccc3)CC2)cc1`, for which, under setting [1], the inhibition is 26.4%.
As to `Cn1ccnc1[C@H]1CCCN(c2nc(N)nc3[nH]ccc23)C1`, the inhibition was -2.28% (PRVABC59, Concentration 49.5 uM, Number of replicates 2.0, Standard deviation 3.8174405200431902 %); -3.06% (PRVABC59, Concentration 99.01 uM, Number of replicates 2.0, Standard deviation 1.4789216188918706 %); -2.23% (PRVABC59, Concentration 198.0 uM, Number of replicates 2.0, Standard deviation 2.077532676089371 %).
For the compound `O=C(Nc1c(F)cc(Br)cc1F)c1cc(Cl)ccc1NS(=O)(=O)c1ccc(Oc2ccccc2Cl)cc1`, the inhibition under setting [2] came to 21.6%.
As for `NCc1cccc(NC(=O)[C@]2(NC(=O)OCc3ccccc3)CCc3ccccc32)c1`, the inhibition is, setting by setting: (PRVABC59, Concentration 49.5 uM, Number of replicates 2.0, Standard deviation 0.7623792541417952 %) 2.16%; (PRVABC59, Concentration 99.01 uM, Number of replicates 2.0, Standard deviation 1.7788848701350575 %) 2.87%; (PRVABC59, Concentration 198.0 uM, Number of replicates 2.0, Standard deviation 1.0657751133151034 %) 6.53%.
For the compound `COc1cc(NC(=O)c2cc(Cl)ccc2NS(=O)(=O)c2ccc(Oc3ccccc3Cl)cc2)ccc1Br`, the inhibition under setting [2] was determined as 60.4%.
`O=C(N[C@H](c1ccccc1)C(F)(F)F)c1cc(Cl)ccc1NS(=O)(=O)c1ccc(Oc2ccccc2Cl)cc1`: the inhibition under setting [2] stood at 60.6%.
As for `Cn1nc(CN2CCC(c3c[nH]c4cccnc34)CC2)c2cccnc21`, the inhibition was -2.91% (PRVABC59, Concentration 49.5 uM, Number of replicates 2.0, Standard deviation 2.4193874080883244 %); -2.31% (PRVABC59, Concentration 99.01 uM, Number of replicates 2.0, Standard deviation 2.730562374311561 %); -2.15% (PRVABC59, Concentration 198.0 uM, Number of replicates 2.0, Standard deviation 1.9266932778068837 %).
As for `O=Cc1ccc(N2CCC(C(=O)Nc3cc(Cl)c(F)c(Cl)c3)CC2)cc1`, under setting [1], the inhibition was 20.1%.
For `O=C(c1cc(Cl)ccc1NS(=O)(=O)c1ccc(Oc2ccccc2Cl)cc1)N1CCC[C@H]1c1cccc(F)c1`, the inhibition under setting [2] came to 9.24%.
`COc1ccccc1OCCCN(C)C(=O)c1cc(Cl)ccc1NS(=O)(=O)c1ccc(Oc2ccccc2Cl)cc1`: the inhibition under setting [2] worked out at 13%.
Take `O=Cc1ccc(N2CCC(C(=O)N3CCC(N4CCOCC4)CC3)CC2)cc1`: the inhibition under setting [1] was 27.1%.
Same read-out and setting: to `O=Cc1ccc(N2CCC(C(=O)N3CC4C[C@H]5CC3C[C@H](C4)C5)CC2)cc1` belongs 26.4%.
For `CC(C)(CO)NC(=O)c1cc(Cl)cc(NC(=O)Cn2cnccc2=O)c1`, the inhibition by setting is: (PRVABC59, Concentration 49.5 uM, Number of replicates 2.0, Standard deviation 1.6711835088733193 %) -1.4%; (PRVABC59, Concentration 99.01 uM, Number of replicates 2.0, Standard deviation 3.2749476966100057 %) -0.302%; (PRVABC59, Concentration 198.0 uM, Number of replicates 2.0, Standard deviation 4.3005396673800345 %) 1.11%.
Regarding `COc1ccccc1CN(CCCO)C(=O)c1cc(Cl)ccc1NS(=O)(=O)c1ccc(Oc2ccccc2Cl)cc1`, under setting [2], the inhibition amounted to 23.2%.
On to `CC1(C)C[C@H](NC(=O)c2ccnc3[nH]ncc23)CN(C(=O)c2cnc[nH]2)C1`, for which the inhibition is, setting by setting: (PRVABC59, Concentration 49.5 uM, Number of replicates 2.0, Standard deviation 2.146240510678679 %) 0.613%; (PRVABC59, Concentration 99.01 uM, Number of replicates 2.0, Standard deviation 1.6633364611035912 %) -0.6%; (PRVABC59, Concentration 198.0 uM, Number of replicates 2.0, Standard deviation 2.42246977570732 %) -3.3%.
As for `O=Cc1ccc(N2CCC(C(=O)N3CCC(c4cccc(Cl)c4)CC3)CC2)cc1`, the inhibition under setting [1] was -4.34%.
Regarding `C#CCN(C(=O)C1CCN(c2ccc(C=O)cc2)CC1)[C@@H](C)Cc1ccccc1`, the inhibition under setting [1] came to 29.9%.
For the compound `COc1cc(Cn2cc(C3CCNCC3)c(C)n2)ccn1`, the inhibition reads like this: (PRVABC59, Concentration 49.5 uM, Number of replicates 2.0, Standard deviation 1.8611836725231279 %) 0.683%; (PRVABC59, Concentration 99.01 uM, Number of replicates 2.0, Standard deviation 2.3024742735653634 %) 1.42%; (PRVABC59, Concentration 198.0 uM, Number of replicates 2.0, Standard deviation 2.257528084059936 %) 2.51%.
As for `O=C(NCCCCN1CCOCC1)c1cc(Cl)ccc1NS(=O)(=O)c1ccc(Oc2ccccc2Cl)cc1`, under setting [2], the inhibition was 6.37%.
As to `COc1c(Cl)cccc1NC(=O)C1CCN(c2ccc(C=O)cc2)CC1`, the inhibition under setting [1] worked out at 25.5%.
Regarding `O=C(NC[C@H](O)c1ccc(O)cc1)c1cc(Cl)ccc1NS(=O)(=O)c1ccc(Oc2ccccc2Cl)cc1`, under setting [2], the inhibition is 18.8%.
With `O=Cc1ccc(N2CCC(C(=O)N3CCC4(CC3)CNC(=O)C4)CC2)cc1`, the inhibition under setting [1] turned out to be 25.4%.

(Values after ChEMBL document CHEMBL5606458, “ASAP - ZIKV NS2B-NS3 protease fluorescence single point” (2024).)
